# Measured values: PubChem BioAssay AID2147 (National Center for Advancing Translational Sciences (NCATS), 2009)
# Among all 230,000 compounds or so, about 3,600 (1.6%) were called active. Inconclusive means that the source gave no clear call. Such entries were picked first, then a sample of the others. Calls follow the shape of the dose curve; as a rule, active = well fitted inhibition curve with a large enough effect (not every such curve was filed as active); inconclusive = small, poorly fitted or top-dose-only effect, or another doubt; inactive = no such curve, though single readings can be large or run the other way. A potency beside an inconclusive call is a rough fit, not a confirmed value.
# Biological target: Lysine-specific demethylase 4E (Homo sapiens) (UniProt B2RXH2)
# UniProt B2RXH2, sequence (B2RXH2 whole entry, looked up, the tested form may be a part): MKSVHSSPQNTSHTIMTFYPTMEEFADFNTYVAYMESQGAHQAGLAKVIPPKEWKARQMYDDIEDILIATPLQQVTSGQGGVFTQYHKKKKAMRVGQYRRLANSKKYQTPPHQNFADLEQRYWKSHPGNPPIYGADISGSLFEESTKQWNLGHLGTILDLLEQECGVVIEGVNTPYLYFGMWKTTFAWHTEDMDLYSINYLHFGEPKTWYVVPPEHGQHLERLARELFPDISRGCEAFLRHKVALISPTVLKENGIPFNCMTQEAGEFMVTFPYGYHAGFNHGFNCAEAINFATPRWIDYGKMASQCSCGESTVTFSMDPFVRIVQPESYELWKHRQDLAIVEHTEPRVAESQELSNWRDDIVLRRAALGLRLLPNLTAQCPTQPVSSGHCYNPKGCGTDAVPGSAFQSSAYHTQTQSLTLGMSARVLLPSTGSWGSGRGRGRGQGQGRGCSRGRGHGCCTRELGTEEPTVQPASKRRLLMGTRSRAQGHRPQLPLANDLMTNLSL
# Test: qHTS Assay for Inhibitors of Human Jumonji Domain Containing 2E (JMJD2E)
# Settings: JMJD2E catalytic domain, FDH-coupled NADH fluorescence (FDH is formaldehyde dehydrogenase); series mostly up to 57.1 µM; activity change, negative = inhibition: at the top concentration
# Also: nearly all actives have a fitted effect of over 50% in size.
# 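For activity change, negative = inhibition in this document: 0% = wells with enzyme and -100% = buffer wells without enzyme.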
# Potency is read from the fitted curve at half-maximal effect; tags tell the direction and shape of the fitted curve.
SMILES,Potency,"activity change, negative = inhibition"
O=C(CC1CCCCC1)Nc1nc2ccccc2s1,"inconclusive: 39.8 µM [inhibitor, single point]",
Cc1csc2nc(CNC(=O)c3ccco3)cn12,,inactive: 0.99%
c1cncc(-c2nc(NCc3cccs3)c3ccccc3n2)c1,"inconclusive: 35.5 µM [inhibitor, single point]",
c1ccc2oc(-c3[nH]ncc3CN(Cc3ccncc3)CC3CCCO3)cc2c1 (centres undefined),"inconclusive: 31.6 µM [inhibitor, single point]",
COc1ccccc1/C=C/C(=O)OCC(=O)Nc1c(F)cccc1F,"inconclusive: 11.2 µM [inhibitor, partial curve]",
Cc1ccc(Cn2cccc(NC(=O)NCc3ccccc3)c2=O)cc1,"inconclusive: 17.8 µM [inhibitor, partial curve]",
Cc1cc(=O)[nH]c(SCC(=O)Nc2nnc(CC(C)C)s2)n1,,inactive: -6.79%
COc1ccc(NC(=O)c2oc3ccc(S(=O)(=O)N4CCC5(CC4)OCCO5)cc3c2C)cc1,"inconclusive: 35.5 µM [inhibitor, single point]",
Cc1nc2c(C(=O)NCc3ccc4c(c3)OCO4)c[nH]n2c(=O)c1Cl,"inconclusive: 25.1 µM [inhibitor, partial curve]",
CCn1c(=O)cc(C(F)(F)F)[nH]c1=S,"inconclusive: 39.8 µM [inhibitor, single point]",
Cn1ccc(=S)c2ccccc21,"inconclusive: 25.1 µM [inhibitor, single point]",
CCCn1c(=O)[nH]c(=O)c2c1nc(-c1ccc3c(c1)OCCO3)n2CCN1CCOCC1,"inconclusive: 28.2 µM [inhibitor, partial curve]",
Cc1ccc2ccc(C(Nc3cccc(C(F)(F)F)c3)c3cccnc3)c(O)c2n1 (centres undefined),"inconclusive: 39.8 µM [inhibitor, single point]",
COc1ccc(-c2cc(C(F)(F)F)nc(N3CCOCC3)n2)cc1,"inconclusive: 28.2 µM [inhibitor, single point]",
COc1cccc(-c2cc3c(=O)n(-c4ccccc4)c(=S)[nH]c3s2)c1,"inconclusive: 35.5 µM [inhibitor, partial curve]",
O=C(c1ccc2c(c1)OCCO2)N1CCCCC1,,inactive: 6.87%
Cc1ccc(S(=O)(=O)Nc2ccc3oc(=O)sc3c2)c(C)c1,"inconclusive: 39.8 µM [inhibitor, single point]",
O=C(c1cc(-c2ccco2)nn1-c1cccc(Cl)c1)N1CCCCC1,"inconclusive: 28.2 µM [inhibitor, single point]",
O=c1cnnc(Nc2ccccc2)[nH]1,,inactive: 3.57%
